Reference: PubChem BioAssay (NCI)
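Compound exposure: 48 hours, 5 concentrations, 96-well plates. GI50 is the concentration that inhibits growth by half. TGI: total growth inhibition.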

What follows are molecules tested on NCI-H322M lung (assay: growth of human tumour cells (NCI), 48 h).
For `COc1cc(/C=N/NC(=O)c2cnn3c2NC(c2ccccc2)C3)ccc1OC1CCCC1` (stereo not given), the GI50 was 0.821 µM and the TGI was 10.4 µM. Work on `CC1=NN(C(=O)CC(=O)Nc2cccc(C)c2)C(=O)C1N=Nc1ccc(S(=O)(=O)CCOS(=O)(=O)O)cc1` (stereo not given) yielded a TGI of 36.2 µM. Work on `N#Cc1c(-c2ccc([N+](=O)[O-])cc2)c(C#N)c(=O)n(NS(=O)(=O)c2ccccc2)c1S` yielded a TGI greater than 100 µM. `O=C1C(=O)c2c(nc3ccc(C(F)(F)F)cn23)-c2ccccc21` showed a GI50 of 0.552 µM and a TGI of 1.15 µM. Work on `CCOP(=O)(/C=C/n1cc(C)c(=O)[nH]c1=O)OCC` yielded a TGI greater than 100 µM. Molecule `COC(=O)c1c2c(cc3c1CC1(Cc4cc5c(c(C=O)c4C1)CCC5)C3)CCC2` (stereo not given) has a TGI greater than 100 µM. With `COc1cc2c(/C=C3\C(=O)Nc4ccccc43)c[nH]c2cc1C` the GI50 was 1.45 µM and the TGI was 12.8 µM. With `Cc1ccc(C2=CC(=O)c3ccccc3C2=O)n1-c1ccccc1` the TGI was greater than 100 µM. `O=S(=O)(Nc1nc2ccccc2nc1N1CCCCCC1)c1ccccc1` was tested, and the TGI was greater than 100 µM. Molecule `N#Cc1c(NC(=S)Nc2ccc(Cl)cc2)sc2c1CCN(N1CCc3c(sc(NC(=S)Nc4ccc(Cl)cc4)c3C#N)C1)C2` has a TGI of 47.5 µM. `CC1OC(OC2C(O[C@H]3CC[C@@]4(C)C(=CC[C@H]5[C@@H]6C[C@@H]7O[C@]8(CC[C@@H](C)CO8)[C@@H](C)[C@@H]7[C@@]6(C)CC[C@@H]54)C3)OC(CO)C(O)C2OC2OC(CO)C(O)C(O)C2O)C(O)C(O)C1O` (stereo not given in full) gave a TGI of 3.3 µM. Work on `N#Cc1nc(CCc2nc(C#N)c(N)o2)oc1N` yielded a TGI greater than 10 µM. `COC(=O)C1C=CCC2CCCCC21N1CCCC1` (stereo not given) showed a TGI greater than 100 µM. For `CC(=O)Nc1ccc(C2CC(c3ccc([N+](=O)[O-])cc3)=Nc3ccccc3S2)cc1` (stereo not given), the TGI was greater than 100 µM. For `COc1ccc(-n2cc(-c3ccc(OC)c(OC)c3)[nH]c2=O)cc1`, the GI50 was greater than 100 µM and the TGI was greater than 100 µM. `CCCCNC(c1ccc(Cl)cc1)C(O)c1ccc(Cl)cc1` (stereo not given) gave a GI50 of 1.75 µM and a TGI of 5.61 µM. `CCN(CC)C(=S)SSC(C)C` showed a GI50 of 34.9 µM and a TGI greater than 100 µM. `O=C(Nc1sc2c(c1C(=O)O)CCCC2)c1ccco1` was tested, and the GI50 was greater than 50 µM and the TGI was greater than 50 µM. `C=C1c2nc3ccccc3n2C=C(c2ccc(C)cc2)N1c1ccc(OC)cc1` showed a TGI greater than 100 µM. `CC1=C(CO)C(=O)OC(C(C)C2CCC3C4CC5OC56C(O)C(N5CC5)=CC(=O)C6(C)C4CCC23C)C1` (stereo not given) gave a TGI of 26.6 µM. Work on `O=C(Nc1ccc(Cl)cc1C(F)(F)F)C(=O)Nn1c(=S)[nH]c2ccccc2c1=O` yielded a TGI greater than 100 µM. In the case of `CC(C)(C)C1CCC2c3c([nH]c4ccccc34)C3C(=O)N(c4ccc([N+](=O)[O-])cc4)C(=O)C3C2C1` (stereo not given), the TGI is reported as greater than 100 µM. Molecule `CC1CCC2C(C)C(=O)OC2C2(C)C(=O)C=CC12` (stereo not given) has a TGI greater than 10 µM. In the case of `O=c1c2cccnc2ncn1CCCN1CCCCC1`, the TGI is reported as greater than 100 µM. In the case of `CSC(SC)=C(C(=O)c1ccc(Cl)cc1)n1c(=O)sc2cc(Br)ccc21`, the TGI is reported as greater than 100 µM. For `NC(N)=N/N=C\c1ccc(OCc2ccccc2)cc1`, the GI50 was 2.51 µM and the TGI was 8.31 µM. `O=C1c2ccccc2-c2nc3ccncc3n21` showed a TGI greater than 100 µM. In the case of `COC(=O)C1CC(c2ccc(OC)c(OC)c2)OC1=O` (mixture of isomers), the TGI is reported as greater than 100 µM. Molecule `Oc1ccc(Cl)cc1C=Nc1cnc2ccccc2c1` has a TGI greater than 90.6 µM. Work on `COc1ccc(-c2ccc(C3CC(c4ccccc4)=NN3)o2)c([N+](=O)[O-])c1` (stereo not given) yielded a GI50 of 43 µM and a TGI greater than 100 µM. `CN1CCCC2[C@@H]3CCC4c5nonc5CC[C@]4(C)C3CC[C@@]21C` (stereo not given in full) gave a TGI greater than 100 µM. Work on `COP(=O)(OC)OCN(C)CC/C=C(\C)CC/C=C(\C)CCC=C(C)C` yielded a TGI of 30.5 µM. In the case of `N=C1CCCC1C(=S)SCCC(N)=O` (stereo not given), the TGI is reported as greater than 100 µM. Work on `CN(CCCCCl)P(=O)(OCc1ccc([N+](=O)[O-])o1)OCC1OC(n2ccc(N)nc2=O)C(O)C1O` (stereo not given) yielded a TGI of 74.7 µM. `COc1ccccc1NC(=O)C(=O)C(C(=O)c1ccccc1F)C1OC(=O)c2ccccc21` (stereo not given) gave a TGI of 83.1 µM. Molecule `O=C(O)c1c(CC(Cc2ccc3c(c2)CCC3)C(=O)O)ccc2c1CCC2` (stereo not given) has a TGI greater than 100 µM. With `CC(=O)N1[C@H](C(=O)O)CS[C@H]1c1ccc(F)cc1` the TGI was greater than 100 µM. In the case of `CC(=O)NC1C(OCc2ccccc2)OC(CO)C(O)C1OC(C)C(=O)N[C@@H](C)C(=O)N[C@H](CCC(=O)NCCNCCNc1c2ccccc2nc2cccc([N+](=O)[O-])c12)C(N)=O` (stereo not given in full), the TGI is reported as 0.623 µM. In the case of `COc1cc2c(cc1O)C1Cc3ccc(OC)c(O)c3C[N+]1(C)CC2` (stereo not given), the TGI is reported as greater than 100 µM. Molecule `COc1ccc(-c2ccc(CC(=O)O)cc2)cc1OC` has a TGI greater than 100 µM. With `O=c1c(Cc2ccccc2)c(O)cc2n1CCC2` the TGI was greater than 100 µM. `CC(C)Cc1cnc(CC(C)C)c(=O)[nH]1` gave a TGI greater than 100 µM. Work on `C[C@@]1(F)[C@H](O)[C@@H](CO)O[C@H]1n1ccc(=O)[nH]c1=O` yielded a GI50 greater than 100 µM and a TGI greater than 100 µM. `CC(=O)n1[nH]c(=O)n(-c2ccc(Cl)cc2)c1=O` was tested, and the TGI was greater than 100 µM. For `C/C(=N\Nc1nc2ccccc2s1)c1ccncn1`, the TGI was greater than 59.4 µM. For `Cc1ccc(/C(=N/Nc2ccc([N+](=O)[O-])cc2)Sc2cc(Cl)c(C)cc2S(N)(=O)=O)cc1`, the GI50 was 1.79 µM and the TGI was 4.48 µM. `CCCC(=O)O[C@]1(C)CC[C@@H]2[C@H]3[C@@H]1[C@@H]1C[C@@](C)(O)[C@H](OC)CC[C@](C)(OC(=O)[C@@H]2C)[C@H]3O1` was tested, and the GI50 was 19.2 µM and the TGI was 49 µM. Work on `COc1c2ccoc2nc2c(OC)c(OCC(O)C(C)(C)O)ccc12` (stereo not given) yielded a TGI greater than 100 µM.
